In article PMC10726135 one finds binding signal (log2 normalized intensity) data, which are given here for 73 sequences.

The list shows a part of the results. At the low end of the ranking the order means little. The protein was read in a cell extract, so binding may be indirect.

The target of this test is T1, HNF4alpha2 (COS-7 nuclear extract) (UniProt P41235).
T1 sequence: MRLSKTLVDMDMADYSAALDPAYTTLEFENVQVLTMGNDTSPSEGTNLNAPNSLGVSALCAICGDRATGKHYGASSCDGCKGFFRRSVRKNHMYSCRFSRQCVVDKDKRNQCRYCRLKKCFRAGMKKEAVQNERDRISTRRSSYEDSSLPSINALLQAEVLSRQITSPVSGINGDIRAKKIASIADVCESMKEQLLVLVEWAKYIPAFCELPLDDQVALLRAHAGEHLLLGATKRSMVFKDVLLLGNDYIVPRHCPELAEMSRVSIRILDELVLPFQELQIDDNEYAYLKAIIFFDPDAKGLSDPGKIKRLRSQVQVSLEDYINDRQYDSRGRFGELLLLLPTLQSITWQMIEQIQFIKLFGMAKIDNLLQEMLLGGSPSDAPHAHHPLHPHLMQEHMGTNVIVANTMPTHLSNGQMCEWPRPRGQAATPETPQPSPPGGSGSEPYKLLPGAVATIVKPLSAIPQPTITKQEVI
Nature of the test: protein-binding microarray. As to conditions: COS-7 nuclear extract on double-stranded Agilent 4x180k PBM; binding buffer, salt, pH and temperature not given; high values mean tight binding; double strand, one strand shown; sequences stand for … in …GCCTAGGGAGATTAGAGTATCGGTCGA
As to TGACCTTTATCCAGTTCTGTGTACAAAGCC, the binding signal (log2 normalized intensity) was 2.38.

As for GGCCTGGTGGCTCCCCCAGGCGACTGGGCC, the binding signal (log2 normalized intensity) was -0.847.

As to GATTACGATCCTGCCCTTCTGACCTCCCAG, the binding signal (log2 normalized intensity) stood at 3.96.

On to GAAATGTAACCTTTGGCCAATTGCATTTTT, for which the binding signal (log2 normalized intensity) is 4.33.

Take GTGGTTTCTTCCACTGGAGTCTTGTTTGTC: the binding signal (log2 normalized intensity) worked out at 1.86.

Turning to TTCAATAATACAAGAGGCTTCTTATCAGCA, the binding signal (log2 normalized intensity) is -1.17.

As for CCAATATAGCAAAGAGAGTCAAAGTTCAGG, the binding signal (log2 normalized intensity) is 2.89.

As to TTGCACCAGTTTCTCAACAGACCCCTGAAT, the binding signal (log2 normalized intensity) was 2.27.

Turning to CAGTAAGAGGATTTCTTCGCCACTTTCATC, the binding signal (log2 normalized intensity) is -0.737.

AACTTAGGCCCATATTCCTTAGATAAAAAG: the binding signal (log2 normalized intensity) was -1.04.

Consider GACTGATATTCAAACAGGTCAAGCAATGCT, for which the binding signal (log2 normalized intensity) was -1.23.

For the sequence GCAGGTGTGGGGGCGGCAGGAGCCACAAGC, the binding signal (log2 normalized intensity) is -1.2.

ATCAGCAAGGTAAACATGATGAAAGCAATG: the binding signal (log2 normalized intensity) is -1.

Consider AGGAGTTCAGCAGCATCTAAACTCTACTCA, for which the binding signal (log2 normalized intensity) was -1.15.

Consider CTGAACAAACAGCTTCCAGAATAGCCTCTG, for which the binding signal (log2 normalized intensity) was -1.18.

With AACCCCTCTCCAAGCCAGAAAGATGTTTGC, the binding signal (log2 normalized intensity) came to 2.62.

Regarding TGGTACAGGGCCCAGAAAAGTAGATTGTTA, the binding signal (log2 normalized intensity) was -1.08.

Regarding TTAAGTCCAGAAAAGACCAAAAAGGCTAAC, the binding signal (log2 normalized intensity) is -1.2.

CATGCCACAGCGCCCTCAGTGTTTTCACTG: the binding signal (log2 normalized intensity) is -0.973.

In the case of ATATATGTACAGCTGTGTATGTGGCAGGCA, the binding signal (log2 normalized intensity) was found to be 1.49.

In the case of GTCAGGAGACTGCTCGGCATCCCTGCCGTG, the binding signal (log2 normalized intensity) is -1.21.

As for GCAAAGTCCCTGGGGACAGGGATTAAGTAC, the binding signal (log2 normalized intensity) is -1.04.

Consider GAAAAATGTACATGTGCAAAAGCACCCAAG, for which the binding signal (log2 normalized intensity) was -1.03.

Consider AACATTGCATTCCTTTGTTTATCTAACCCA, for which the binding signal (log2 normalized intensity) worked out at 0.703.

Regarding AGTACCAGGTCAAAAGTTCAAACTTTATTT, the binding signal (log2 normalized intensity) was 3.13.

Consider TAGGATAAGGGTAGGGCCAATCTCTGGCAT, for which the binding signal (log2 normalized intensity) was -1.01.

With CATTTTTCCCCTGACAAGTATCTCGGTCAA, the binding signal (log2 normalized intensity) was 1.22.

AGAGGAGAAGCAAATGAAAAGAATATCTCA: the binding signal (log2 normalized intensity) is -1.14.

For AGCTCCCATAGAGTCCACCACTGACCTTAG, the binding signal (log2 normalized intensity) is 3.37.

Take AATGCCCAGGATTCCTTTTTCACTGCTCAC: the binding signal (log2 normalized intensity) was -1.08.

As for TCCCTATTGTTATCCAGGCCACGCTGCTAA, the binding signal (log2 normalized intensity) was -1.

For the sequence ACGGGCTATTTGGACTAGGCAAAAGACAGT, the binding signal (log2 normalized intensity) stood at 0.282.

For CATATCACCTAGGTGGAATCTTATACACAC, the binding signal (log2 normalized intensity) was -0.515.

For the sequence ATCTTCAGTCTAGAATCTGCAGCCCCTTTT, the binding signal (log2 normalized intensity) came to 3.3.

In the case of TGGACTACTTCATGTCCTGTAATTGGGGGA, the binding signal (log2 normalized intensity) amounted to 1.09.

Regarding GTTCGAATCCCAGCGGTGCCTCAACCGAGC, the binding signal (log2 normalized intensity) is -1.07.

Regarding ACTACCTCTTTAGGCTGGACTCTGACCCAT, the binding signal (log2 normalized intensity) was 6.75.

On to GTAACCCCCCAGGAGCGAGTCAAGGGTCAA, for which the binding signal (log2 normalized intensity) was determined as 4.07.

TTCCTCCCTTGGAATGTGACCTTAGACCCC: the binding signal (log2 normalized intensity) turned out to be 8.18.

Consider AACACGGACTTTGAAGCTCCAAGATAGGAA, for which the binding signal (log2 normalized intensity) is -1.05.

Consider ACCCAACCTGTTACAAAACAGGTTCTTCCA, for which the binding signal (log2 normalized intensity) is -0.455.

Take GTGAACTTTGCCCTCTCTTTCTGGAACCTA: the binding signal (log2 normalized intensity) stood at 5.08.

CCAGAGTCTACAGGTCAGACCTGTTTCAAA: the binding signal (log2 normalized intensity) worked out at 1.51.

For the sequence CTGCTGGGGGTAAAGTGGATTGCTGGCCTT, the binding signal (log2 normalized intensity) was found to be 0.0976.

For the sequence CTCATCCCAGGGATAATGATAAAGAGATTG, the binding signal (log2 normalized intensity) was -1.13.

TGTTTAAATAGTGATAATGGATGGCAAATA: the binding signal (log2 normalized intensity) was 1.05.

In the case of TATCAACCAATGTATTCATGAGCATGCTTC, the binding signal (log2 normalized intensity) came out at 0.711.

For the sequence GTGCTCCTCCCCATCTCAGCCTCTCAGGTC, the binding signal (log2 normalized intensity) amounted to 2.01.

AGGACCTTGGACTGAAGACTGGAACTGGGC: the binding signal (log2 normalized intensity) was found to be 0.604.

Turning to GTAAATGCTGGAGATGAGGCTCAGACCTGA, the binding signal (log2 normalized intensity) is -1.08.

Turning to GCCCTGGAATGGGATCCAGGTGCAAAGTAC, the binding signal (log2 normalized intensity) is 4.18.

Turning to TTTTGGGTAAAGTCCAGGCAGGACATCAAA, the binding signal (log2 normalized intensity) is 1.44.

For the sequence AGATGAGGAAATTGAGGCTTAGCAGCTTGA, the binding signal (log2 normalized intensity) was -1.05.

Turning to TCCTCAAAGAGCAGATGTGTCTTTATAACA, the binding signal (log2 normalized intensity) was 1.4.

As for CAAGATTCTTGGAGGCTGCAGCGCCACATT, the binding signal (log2 normalized intensity) was -1.1.

On to ATGCCAGGCAAGAGCTCAGAAGCCACCAGT, for which the binding signal (log2 normalized intensity) is -1.06.

Turning to ACAGATTCAGAGTCACATTTTAAGAAACCT, the binding signal (log2 normalized intensity) was -0.998.

TCCCCTGGGCCCACGGCTCTGCACAGCCTG: the binding signal (log2 normalized intensity) was -0.989.

Consider GTCAAAGGTCAATGAAGCTCTTGCTGGTCA, for which the binding signal (log2 normalized intensity) was 2.5.

As for GTTGCTGTGCTGCCCTCTTGTGGCCATTTG, the binding signal (log2 normalized intensity) came out at 1.

Turning to CCTGCCCTTTGTCCCTCCTGCTAGTCACAT, the binding signal (log2 normalized intensity) stood at 2.32.

Take CAGGGCAAGGACTCTAAAGGGAATAACCTT: the binding signal (log2 normalized intensity) was -0.302.

For CAGGCCTCCCTCCCTCCCCCATTAGAGGCA, the binding signal (log2 normalized intensity) is 4.48.

Consider GCTGGGGGACGCGACCTCCGGGAAAGCTAT, for which the binding signal (log2 normalized intensity) was -1.12.

Take CCAAGTTCAAAGGTTATCTGCTGGCAGAAT: the binding signal (log2 normalized intensity) stood at 3.99.

For AACCCAAAGTCTTTCTCTTTCAAGATAACA, the binding signal (log2 normalized intensity) stood at 1.03.

For AAGTCCACAAAGATAAGAAAGAATCAGCAC, the binding signal (log2 normalized intensity) is -0.904.

In the case of GCCTCGCCCGAGCTGTGCGGTAGGCATTGA, the binding signal (log2 normalized intensity) is -1.28.

For the sequence GGATTTTAGCAGATAACTCCTGTGCTGGAA, the binding signal (log2 normalized intensity) is -0.785.

Turning to TGGAGATCAGAGTCCAGCTGTGCCCCAGTC, the binding signal (log2 normalized intensity) amounted to 2.89.

Turning to CTCTCTCCAAGGCACAGAGAAGAATTTCGA, the binding signal (log2 normalized intensity) was -1.18.

With CCAGCTCTGTTGCTTATCTTCTCTTTTACT, the binding signal (log2 normalized intensity) is 1.68.

As to ACAATTTACAGTGTTCAAAGGTAGCTTCCT, the binding signal (log2 normalized intensity) amounted to 1.53.
